{"source": "PubChem BioAssay AID485364", "about": "(National Center for Advancing Translational Sciences (NCATS), 2010)", "note": "Hit rate of the full screen: of about 360,000 compounds, about 11,000 (3.1%) were called active. Inconclusive means that the source gave no clear call. Such entries were picked first, then a sample of the others. The call rests on the fitted dose curve; in most records, active means well fitted inhibition curve with a large enough effect; inconclusive means small, poorly fitted or top-dose-only effect; inactive means no such curve, though single readings can be large or run the other way. Potencies of inconclusive entries are left out as doubtful fits. Potency means the concentration at half of the fitted maximal effect; tags describe the fitted curve by direction and shape."}
{"molecular_target": "Schistosoma mansoni thioredoxin glutathione reductase (TGR) (UniProt Q962Y6)", "assay": "qHTS Assay for the Inhibitors of Schistosoma Mansoni Peroxiredoxins; further: nearly all actives have a fitted effect of over 60% in size", "conditions": "purified TGR, DTNB reduction, TNB absorbance 405 nm; series mostly up to 114 µM", "summary_of_the_method": "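Kinetic colorimetric format: TGR-catalysed, NADPH-driven DTNB reduction monitored via TNB absorbance. Enzyme dispensed at 20 nM; compound exposure 15 min at room temperature before reaction start.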"}
{"smiles": "Cc1oc(-c2ccccc2F)nc1CS(=O)(=O)CC(=O)N1CCc2ccccc21", "Potency": "inconclusive [inhibitor, partial curve]"}
{"smiles": "CCOC(=O)C1=C(N)Oc2ccc3ccccc3c2C1c1ccc(O)c(OC)c1", "note": "(stereo not drawn)", "Potency": "inconclusive [inhibitor, partial curve]"}
{"smiles": "O=C(O)CCc1ccc(-c2ccc(Br)cc2)o1", "Potency": "active: 7.94 µM"}
{"smiles": "CCCC[C@]12Cc3cc(C#N)ccc3C(O1)c1c(cc(-c3ccccc3)oc1=O)O2", "Potency": "inconclusive [inhibitor, partial curve]"}
{"smiles": "Cc1ccc(CN2CCN(/N=C/c3ccccc3)CC2)cc1", "Potency": "inactive"}
{"smiles": "CN1C/C(=C\\c2ccc(N3CCOCC3)cc2)C(=O)/C(=C/c2ccc(N3CCOCC3)cc2)C1", "Potency": "inconclusive [inhibitor, partial curve]"}
{"smiles": "Cc1ccc(C)c(N2CCN(C(=O)c3cc4c(=O)n(Cc5cccnc5)ccc4nc3C)CC2)c1", "Potency": "inactive"}
{"smiles": "Cc1cccc(CS(=O)(=O)c2ncc(Cl)c(C(=O)Nc3ccc(F)cc3)n2)c1", "Potency": "active: 7.08 µM"}
{"smiles": "CCCN1CCN(C(=O)c2ccc(-c3ccc([N+](=O)[O-])cc3)o2)CC1", "Potency": "inconclusive [inhibitor, partial curve]"}
{"smiles": "Cn1cc(C=C2C(=O)NC(=O)NC2=O)c2ccccc21", "Potency": "inconclusive [inhibitor, partial curve]"}
{"smiles": "CSc1nnc(N2C(=O)C(O)=C(C(=O)c3ccco3)C2c2ccccc2F)s1", "note": "(stereo not drawn)", "Potency": "inconclusive [inhibitor, partial curve]"}
{"smiles": "CC1=CC(=O)C=C(C)C1=NOS(=O)(=O)c1ccccc1", "Potency": "active: 3.98 µM"}
{"smiles": "COCCn1nnnc1C(c1ccc(OC)c(OC)c1)N1CCc2ccccc21", "note": "(stereo not drawn)", "Potency": "inconclusive [inhibitor, partial curve]"}
{"smiles": "Cc1nn(CC(=O)NCCCN2C(C)CCCC2C)c(=O)c2cc3occc3n12", "note": "(stereo not drawn)", "Potency": "inconclusive [inhibitor, full curve, poor fit]"}
{"smiles": "CCOC(=O)c1c(C)[nH]c(C2=NNC(=NC(C)COC)SC2)c1C", "note": "(stereo not drawn)", "Potency": "inconclusive [inhibitor, full curve]"}
{"smiles": "COc1ccc(NC(=O)CSc2ccc3nnc(CCNC(=O)c4ccccc4)n3n2)cc1OC", "Potency": "inactive"}
{"smiles": "CC(C)NC(=O)NC(=O)CSc1nnc(COc2ccccc2Cl)o1", "Potency": "inactive"}
{"smiles": "COc1ccccc1C(c1nnnn1C(C)(C)C)N1CCCCCC1", "note": "(stereo not drawn)", "Potency": "inconclusive [inhibitor, partial curve]"}
{"smiles": "CCOc1ccc(C(C(=O)NC2CCCC2)N(CCCO)C(=O)c2ccc(-c3ccccc3)[nH]2)cc1", "note": "(stereo not drawn)", "Potency": "inconclusive [inhibitor, partial curve]"}
{"smiles": "COc1coc(C(O)C[N+](=O)[O-])cc1=O", "note": "(stereo not drawn)", "Potency": "active: 50.1 µM"}
{"smiles": "CCOc1ccccc1Nc1nc(-c2cccc(Cl)c2)c2c(n1)-c1ccccc1OC2", "Potency": "inconclusive [inhibitor, partial curve]"}
{"smiles": "O=C(c1cc(C(=O)N2CCOCC2)c2nc3ccccc3n2c1)c1cc(Cl)cc(Cl)c1O", "Potency": "inconclusive [inhibitor, partial curve]"}
{"smiles": "O=C(NCc1ccco1)c1ccc2c(c1)CCO2", "Potency": "inconclusive [inhibitor, single point]"}
{"smiles": "Cc1ccc(-n2nc(C)c3c(C)cc(=O)n(CC(=O)Nc4ccc(Br)cc4F)c32)cc1", "Potency": "inconclusive [inhibitor, single point]"}
{"smiles": "COc1ccc(S(=O)(=O)c2c(Nc3ccc(C)cc3)sc(C(=O)c3ccc(C)cc3)c2N)cc1", "Potency": "inactive"}
{"smiles": "COc1ccc(-n2c(C)cc(/C=N/Nc3nnc(C)n3N)c2C)cc1", "Potency": "inconclusive [inhibitor, partial curve]"}
{"smiles": "Cc1cccc(NC(=O)c2sc(C)nc2C)c1", "Potency": "inactive"}
{"smiles": "COc1ccc(-c2nc(CS(=O)(=O)CC(=O)NC3CCCCCC3)c(C)o2)cc1", "Potency": "inconclusive [inhibitor, partial curve]"}
{"smiles": "COc1ccc(CN2CCN(c3ccccc3)CC2)c(C)c1C", "Potency": "inactive"}
{"smiles": "COCCn1nnnc1C(c1cc2cc(C)ccc2[nH]c1=O)N1CCc2ccccc21", "note": "(stereo not drawn)", "Potency": "inconclusive [inhibitor, full curve]"}
{"smiles": "O=C(COC(=O)c1ccc(S(=O)(=O)NCc2ccco2)cc1)NCCC1=CCCCC1", "Potency": "active: 44.7 µM"}
{"smiles": "CC(=O)Nc1cccc(OCC(=O)/C=C2\\N(C)c3ccccc3C2(C)C)c1", "Potency": "inconclusive [inhibitor, partial curve]"}
{"smiles": "CCN(CC)C(=O)c1sc2nc(N3CCOCC3)c3c(c2c1N)CCCC3", "Potency": "inconclusive [inhibitor, partial curve]"}
{"smiles": "Oc1cccc(/C=N/N2CCCCC2)c1O", "Potency": "inconclusive [inhibitor, partial curve]"}
{"smiles": "CCc1ccccc1NC(=O)CSC1=C(C#N)C(c2ccc3c(c2)OCO3)C2=C(CCCC2=O)N1", "note": "(stereo not drawn)", "Potency": "inconclusive [inhibitor, partial curve]"}
{"smiles": "Cc1ccc(C)c(N(Cc2cc3ccc(C)cc3[nH]c2=O)C(=O)c2ccco2)c1", "Potency": "inconclusive [inhibitor, partial curve]"}
{"smiles": "CC1CC(C)CN(CCCNC(=O)c2ccc(CS(=O)(=O)Cc3ccccc3F)o2)C1", "note": "(stereo not drawn)", "Potency": "inconclusive [inhibitor, partial curve, poor fit]"}
{"smiles": "CCOc1ccc(C(=O)Nc2ccc(N3CCCC3)cc2)cc1", "Potency": "inconclusive [inhibitor, partial curve]"}
{"smiles": "Cc1nn(-c2ccccc2)c2[nH]c(=O)c(CNCCN3CCOCC3)cc12", "Potency": "inconclusive [inhibitor, partial curve]"}
{"smiles": "COc1ccc(-c2onc3ccc(Cl)cc23)cc1", "Potency": "inconclusive [inhibitor, partial curve, poor fit]"}
{"smiles": "O=C1CN(C(=O)c2ccc(Br)o2)C(c2ccc(F)cc2)c2cc(F)ccc2N1", "note": "(stereo not drawn)", "Potency": "inconclusive [inhibitor, partial curve]"}
{"smiles": "Clc1nc(Cl)nc(-c2cn(-c3ccccc3)c3ccccc23)n1", "Potency": "inactive"}
{"smiles": "O=C(c1cc(C2CC2)on1)N1CCCC(N2CCN(c3cccc(C(F)(F)F)c3)CC2)C1", "note": "(stereo not drawn)", "Potency": "inconclusive [inhibitor, full curve, poor fit]"}
